Data reported in patent US20260217856A1 (MIE UNIVERSITY, published 2026).

Molecular target: complex of a MAGE-A4 derived peptide and HLA-A2 (human)
Experiment: cell-based or functional assay

B1: MAGE-A4-zG-m2 (other)
chain: QVQLQVQLVQSGAEVKKPGSSVKVSCKASGGTFSSYAISWVRQAPGQGLEWMGGIIPIFGTANYAQKFQGRVTITADKSTSTAYMELSSLRSEDTAVYYCARSPRRAYHDAFDIWGQGTMVTVSSGGGGSGGGGSGGGGSSYELTQPPSMSVAPGKTASITCGGDHIGSKSVHWYQQKPGQAPVLVVYDDSDRPSGIPERFRGRNRGNTARLTISGTQAMDEADYYCLAWDSSTAIFGGGTQLTVLVGQPKANPTVTLFPPSSEELQANKATLVCLISDFYPGAVTVAWKADGSPVKAGVETTKPSKQSNNKYAASSYLSLTPEQWKSHRSYSCQVTHEGSTVEKTVAPTECSARQTRFWVLVVVGGVLACYSLLVTVAFIIFWVRL[about 120 residues left out here]RSQCMWPRETQLLLEVPPSTEDARSCQFPEEERGERSAEEKGRLGDLWV
IFNγ production, co-culture with SK-MEL-37: 0.47 ratio to WT CAR-T (1.00)
cytotoxic activity, effector:target 1:1, SK-MEL-37 target cells: 1.6 ratio to WT CAR-T (1.00)
cytotoxic activity, effector:target 3:1, SK-MEL-37 target cells: 1.41 ratio to WT CAR-T (1.00)
